Laboratory results published in the supplement of paper PMC7726561.
In all, about 1,400 sequences were measured (“thermal melting temperature (Tm) of peptide-HLA complex”: median about 60, lowest 2% from about 45 on). The list shows a part of the results.

B1: unnamed (peptide)
chain: LTRPGSSSL
B2: unnamed (peptide)
chain: RPSDEVIREL
B3: unnamed (peptide)
chain: IPLKPSNEL
B4: unnamed (peptide)
chain: KVRGISEVL
B5: unnamed (peptide)
chain: APFQGDQRSL
B6: unnamed (peptide)
chain: APRIALHTAL
B7: unnamed (peptide)
chain: APILKRAL
B8: unnamed (peptide)
chain: VPASQKLRQL
B9: unnamed (peptide)
chain: KPSESIYSAL
B10: unnamed (peptide)
chain: QPRDFGDSL
B11: unnamed (peptide)
chain: SPRTSLTVV
B12: unnamed (peptide)
chain: SPVSYLRVSM
B13: unnamed (peptide)
chain: APSPVIPRL
B14: unnamed (peptide)
chain: RPSGAVVTL
B15: unnamed (peptide)
chain: APKPRLNQL
B16: unnamed (peptide)
chain: YPAAKRVKL
B17: unnamed (peptide)
chain: FPRSPGQPSSL
B18: unnamed (peptide)
chain: SVRPAVLQV
B19: unnamed (peptide)
chain: HPQWYPARQSL
B20: unnamed (peptide)
chain: VWDPRVSVL
B21: unnamed (peptide)
chain: MPYNYPVLL
B22: unnamed (peptide)
chain: GPRSSLRVL
B23: unnamed (peptide)
chain: APRFISPASQL
B24: unnamed (peptide)
chain: RPMPDIDTL
B25: unnamed (peptide)
chain: LPRAGGPLGL
B26: unnamed (peptide)
chain: KPHLPSVTYL
B27: unnamed (peptide)
chain: YPQGQAPPL
B28: unnamed (peptide)
chain: SPRLPVGGF
B29: unnamed (peptide)
chain: KPQSFQVIL
B30: unnamed (peptide)
chain: APKSPSSEWL
B31: unnamed (peptide)
chain: RPSGPSKAL
B32: unnamed (peptide)
chain: APPEYHRKAV
B33: unnamed (peptide)
chain: LPWASTHSL
B34: unnamed (peptide)
chain: SPSPLRAGVDI
B35: unnamed (peptide)
chain: PARVALSL
B36: unnamed (peptide)
chain: SPDIKQEL

Each sequence was assayed against HLA-B*07:02 (assay: thermal melting temperature (Tm) of peptide-HLA complex; higher = more thermostable pHLA complex). Details: C1R-B*07:02.
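Also: cell lysates heated 10 min at 37–73 °C, remaining pHLA pulled down with pan-class I antibody, peptides quantified by DIA-MS versus 37 °C, Tm where half the complex is lost.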

**Q.** For B1, which thermal melting temperature is on record?
**A.** 57.4 °C

**Q.** B2 was tested. Which thermal melting temperature did it give?
**A.** 55.3 °C

**Q.** With B3 as the sequence, how does the thermal melting temperature read?
**A.** 59.1 °C

**Q.** With B4 as the sequence, how does the thermal melting temperature read?
**A.** 60.5 °C

**Q.** For B5, which thermal melting temperature is on record?
**A.** 57.9 °C

**Q.** For B6, which thermal melting temperature is on record?
**A.** 60.6 °C

**Q.** B7 was tested. Which thermal melting temperature did it give?
**A.** 60.8 °C

**Q.** B8 was tested. Which thermal melting temperature did it give?
**A.** 59.7 °C

**Q.** B9 was tested. Which thermal melting temperature did it give?
**A.** 59.5 °C

**Q.** B10 was tested. Which thermal melting temperature did it give?
**A.** 56.9 °C

**Q.** For B11, which thermal melting temperature is on record?
**A.** 57.1 °C

**Q.** Which thermal melting temperature does the source give for B12 here?
**A.** 61.5 °C

**Q.** For B13, which thermal melting temperature is on record?
**A.** 61.4 °C

**Q.** With B14 as the sequence, how does the thermal melting temperature read?
**A.** 58.1 °C

**Q.** Which thermal melting temperature does the source give for B15 here?
**A.** 53.2 °C

**Q.** How did the thermal melting temperature turn out when B16 was run?
**A.** 58.2 °C

**Q.** For B17, which thermal melting temperature is on record?
**A.** 59.7 °C

**Q.** Which thermal melting temperature does the source give for B18 here?
**A.** 57.8 °C

**Q.** With B19 as the sequence, how does the thermal melting temperature read?
**A.** 57.8 °C

**Q.** B20 was tested. Which thermal melting temperature did it give?
**A.** 53.2 °C

**Q.** Which thermal melting temperature does the source give for B21 here?
**A.** 60.7 °C

**Q.** Which thermal melting temperature does the source give for B22 here?
**A.** 58.9 °C

**Q.** With B23 as the sequence, how does the thermal melting temperature read?
**A.** 61.1 °C

**Q.** With B24 as the sequence, how does the thermal melting temperature read?
**A.** 60.4 °C

**Q.** How did the thermal melting temperature turn out when B25 was run?
**A.** 60.6 °C

**Q.** How did the thermal melting temperature turn out when B26 was run?
**A.** 60.8 °C

**Q.** Which thermal melting temperature does the source give for B27 here?
**A.** 59.5 °C

**Q.** With B28 as the sequence, how does the thermal melting temperature read?
**A.** 62.2 °C

**Q.** With B29 as the sequence, how does the thermal melting temperature read?
**A.** 61.1 °C

**Q.** For B30, which thermal melting temperature is on record?
**A.** 51.9 °C

**Q.** B31 was tested. Which thermal melting temperature did it give?
**A.** 61.4 °C

**Q.** B32 was tested. Which thermal melting temperature did it give?
**A.** 51 °C

**Q.** How did the thermal melting temperature turn out when B33 was run?
**A.** 58.1 °C

**Q.** How did the thermal melting temperature turn out when B34 was run?
**A.** 61.8 °C

**Q.** For B35, which thermal melting temperature is on record?
**A.** 63.4 °C

**Q.** How did the thermal melting temperature turn out when B36 was run?
**A.** 57.6 °C
